Measured values taken from PubChem BioAssay (NCATS).
Where “and” joins values, the source holds several entries; their conditions need not be identical. Equal values may be shown once. The inconclusive results got no clear call from the source; some entries with a clear call stand among them for comparison. Potencies beside an inconclusive call are fits to weak or partial responses and may not hold up. Calls of active or inactive are those of the source. The call rests on the fitted dose curve; in most records, active means well fitted inhibition curve with a large enough effect; inconclusive means small, poorly fitted or top-dose-only effect; inactive means no such curve, though single readings can be large or run the other way.

assay: NS1 protein of Zika virus - qHTS assay to identify small molecule inhibitors in human HEK 293 cells (AID 1347053); conditions: HEK293 ZIKV MR766 infection, NS1 TR-FRET, 24 h; series mostly up to 46.1 µM; activity change, negative = inhibition: at the top concentration; further: nearly all actives have a fitted effect of over 55% in size;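 on activity change, negative = inhibition: plate controls were infected untreated cells for no effect and uninfected cells for full effect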
Summary of the method: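 Inhibition of NS1 expression was scored in HEK 293 cells given compound 1 h ahead of MR766 virus (MOI = 0.5). Following 24 h at 37 C, two anti-NS1 antibodies generated a TR-FRET signal, scaled between uninfected and infected controls.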
Potency means the concentration at half of the fitted maximal effect; tags describe the fitted curve by direction and shape.

SMILES	Potency	activity change, negative = inhibition
Cc1ccc(C(N)=O)cc1Nc1nccc(-c2cn(C(C)C)c3cnccc23)n1	inconclusive: 37.2 µM [inhibitor, single point]	–
CC(C)C[C@H](NC(=O)[C@@H](O)[C@H](N)Cc1ccccc1)C(=O)O	inconclusive: 33.2 µM [inhibitor, single point]	–
C[C@@H](Oc1cc(-c2cnn(C3CCNCC3)c2)cnc1N)c1c(Cl)ccc(F)c1Cl	inconclusive: 37.2 µM [inhibitor, single point]	–
Cc1ccc(C(=O)N(CCCN)[C@@H](c2nc3cc(Cl)ccc3c(=O)n2Cc2ccccc2)C(C)C)cc1	–	inactive: -112%
Cc1cc2c(C(C)C)c(O)c(O)c(C=O)c2c(O)c1-c1c(C)cc2c(C(C)C)c(O)c(O)c(C=O)c2c1O	inconclusive: 35.5 µM [inhibitor, single point] and inconclusive: 37.2 µM [inhibitor, single point]	–
Cc1ccc(S(=O)(=O)Nc2cc(Cl)ccc2C(=O)Nc2nc(-c3ccccc3)cs2)cc1	inconclusive: 37.2 µM [inhibitor, single point]	–
CCn1c(-c2nonc2N)nc2cnc(Oc3cccc(NC(=O)c4ccc(OCCN5CCOCC5)cc4)c3)cc21	active: 14.8 µM	–
CCc1cc(Nc2nccc(-c3c(-c4ccc(OC)c(C(=O)Nc5c(F)cccc5F)c4)nc4ccccn34)n2)c(OC)cc1N1CCC(N2CCN(S(C)(=O)=O)CC2)CC1	active: 26.4 µM	–
CCN(CC)CCCCNc1ncc2cc(-c3cc(OC)cc(OC)c3)c(NC(=O)NC(C)(C)C)nc2n1	inconclusive: 37.2 µM [inhibitor, single point]	–
